Results: PubChem BioAssay AID624202 (National Center for Advancing Translational Sciences (NCATS), 2012)
Screen size: about 380,000 compounds; about 4,000 (1.1%) were called active. The inconclusive results got no clear call from the source; some entries with a clear call stand among them for comparison. Calls come from the whole dose curve; as a rule, active = well fitted activation curve with a large enough effect; inconclusive = small, poorly fitted or top-dose-only effect; inactive = no such curve, though single readings can be large or run the other way. A potency beside an inconclusive call is a rough fit, not a confirmed value.

experiment: qHTS Assay to Identify Small Molecule Activators of BRCA1 Expression; conditions: MCF7-BRCA1-FFLuc reporter, luminescence, 48 h; activation: at 46.1 µM (top of the series), scaled: vehicle 0%, 10 µM genistein 100% unless noted; note: nearly all actives have a fitted effect of over 80% in size
How it was run: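 Cells: MCF7-BRCA1-FFLuc, 2000/well. Exposure: 48 h, 37 °C, 5% CO2. Read: luminescence, 15 min post-substrate. Controls: genistein 10 microM (maximal activation), DMSO (neutral).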
Potency is the fitted concentration of half-maximal effect; tags give direction and shape of the fitted curve.

| Compound | Potency | activation |
| --- | --- | --- |
| CCOC(=O)c1c(-c2ccc(C)cc2)csc1NC(=O)CCN1CCOCC1 | inactive | – |
| CCOC(=O)[C@]12CCCC=C1N(Cc1ccc(Cl)cc1Cl)C(=O)[C@H](CC(=O)NCC13CC4CC(CC(C4)C1)C3)C2 | inactive | – |
| CN(C)CCNC(=O)c1ccccc1-c1cc2ccccc2c(=O)o1 | inactive | – |
| COc1ccc(NC(=O)C(=O)NCC2CCCN2S(=O)(=O)c2cc(C)ccc2C)cc1 (stereo not drawn) | inactive | – |
| Cc1ccc(-c2nnn(CC(=O)Nc3ccc4nn(-c5ccccc5)nc4c3)n2)o1 | inconclusive: 14.1 µM [activator, partial curve, poor fit] | – |
| CCNC(=O)C1(C)CCN(C(=O)c2cccc(OC(C)=O)c2C)C1 (stereo not drawn) | inactive | – |
| c1ccc(-c2noc(-c3ccno3)n2)nc1 | inactive | – |
| c1cc(CSc2nnc(-c3ccc4c(c3)OCO4)o2)ccn1 | active: 3.16 µM | – |
| Cc1ccc(-c2cnc(-c3ccccc3C(=O)O)o2)cc1 | inconclusive: 17.8 µM [activator, partial curve, poor fit] | – |
| COCCn1c(-c2ccc(Br)cc2)csc1=Nc1cccnc1 | inactive | – |
| Cn1cccc1-c1nc2ccccc2[nH]1 | inconclusive: 11.2 µM [activator, partial curve, poor fit] | – |
| Nc1nc(Nc2cccc(F)c2)nc2ccccc12 | inconclusive: 1.12 µM [activator, full curve, poor fit] | – |
| CC(C)Cn1c(SCC(=O)N2CCCc3ccccc32)nc2ccccc2c1=O | inactive | – |
| COc1ccc2c(Cl)c(C(N)=O)sc2c1 | active: 10 µM | – |
| CCSC(=O)N1c2ccc(OC)cc2C=CC1C#N (stereo not drawn) | – | inconclusive: -79.6% [activator] |
| Clc1ccc2nc(-c3ccccc3)cn2c1 | inconclusive: 0.631 µM [activator, full curve, poor fit] | – |
| CCC(=O)Nc1ccc(-c2nnc(-c3ccccc3)o2)cc1 | – | inconclusive: 85.4% [activator] |
| O=C(NCc1cccs1)c1nc(-c2cccs2)no1 | inconclusive: 15.8 µM [activator, partial curve, poor fit] | – |
| O=C(N/N=C\c1ccc(Oc2ccccc2)cc1)c1csnn1 | active: 12.6 µM | – |
| O=C(Nc1ccc(N2CCOCC2)c(Cl)c1)c1cccnc1 | inconclusive: 14.1 µM [activator, single point] | – |
| O=C(Cc1ccc(OCCCc2ccccc2)cc1)NO | inconclusive: 3.16 µM [activator, partial curve, poor fit] | – |
| COC(=O)c1sc2nc3c(cc2c1N)CCCC3 | inconclusive: 1.58 µM [activator, partial curve, poor fit] | – |
| COc1cc(NC(=O)CC(C)C)ccc1NC(=O)c1ccco1 | active: 7.94 µM | – |
| O=C(CSc1nc(-c2ccccc2)cs1)NCc1ccco1 | inactive | – |
| Cn1ccnc1SCC(=O)Nc1cccc(C(F)(F)F)c1 | inactive | – |
| CCN1CCN(C(=O)N[C@@H](C(=O)N[C@@H]2C(=O)N3C(C(=O)O)=C(CSc4nnnn4C)CS[C@H]23)c2ccc(O)cc2)C(=O)C1=O | – | inconclusive: 94.3% [activator] |

| Compound | Potency | activation |
| --- | --- | --- |
| CN(C)c1ccc(/C=C/C(=O)c2ccccc2O)cc1 | active: 3.16 µM | – |
| CCN(CC)c1ccc(NC(=S)NC(=O)c2ccco2)cc1 | inconclusive: 2.24 µM [activator, full curve, poor fit] | – |
| Cc1nnc(SCC(=O)NC(=O)Nc2ccc3c(c2)OCCO3)n1N | active: 10 µM | – |
| CC(C)(C)c1ccc(/C=C/C(=O)NC2=NCCS2)cc1 | – | inconclusive: 60.3% [activator] |
| O=C(COc1ccccc1Cl)c1ccc2c(c1)CCCC2 | inconclusive: 2.82 µM [activator, partial curve, poor fit] | – |
| COc1ccc(-c2onc3ccc(C(C)=O)cc23)cc1 | active: 8.91 µM | – |
| CC(=O)Nc1ccc2nc(-c3cccs3)[nH]c2c1 | active: 6.31 µM | – |
| O=C(NCCc1cccc(Cl)c1)c1cccc([N+](=O)[O-])c1 | inconclusive: 11.2 µM [activator, partial curve, poor fit] | – |
| O=C(CSc1nnnn1Cc1ccccc1)Nc1ccc2c(c1)OCCO2 | inconclusive: 11.2 µM [activator, partial curve, poor fit] | – |
| Cc1cc(NC(=O)CSc2nc3ccccc3cc2C#N)no1 | inconclusive: 2.24 µM [activator, full curve, poor fit] | – |
| C=CCNC(=O)c1cc(Cl)cc(Cl)c1 | inactive | – |
| COc1ccc(S(=O)(=O)Nc2cccc(-c3ccc(N4CCCCCC4)nn3)c2)cc1OC | inconclusive: 35.5 µM [activator, single point] | – |
| CCCC1c2ccc(C)n2CCN1C(=O)Nc1ccccc1Cl (stereo not drawn) | inconclusive: 11.2 µM [activator, partial curve, poor fit] | – |
| COCCN1C(=O)c2ccc(C(=O)Nc3nccs3)cc2C1=O | inactive | – |
| CC(=O)COc1ccc2c3c(c(=O)oc2c1C)CCCCC3 | inconclusive: 2.82 µM [activator, full curve, poor fit] | – |
| Cc1cccc(Oc2coc3cc(O)ccc3c2=O)c1 | inconclusive: 10 µM [activator, partial curve, poor fit] | – |
| CCCOC(=O)Nc1c(C)cccc1C(C)C | inactive | – |
| CC(C)OC(=O)c1sc2nc3c(cc2c1N)C(=O)CCC3 | inconclusive: 14.1 µM [activator, partial curve, poor fit] | – |
| CC(=O)c1sc(NC(=O)c2ccccc2)nc1-c1ccccc1 | active: 2.82 µM | – |
| Cc1cccc(NC(=O)c2cccc(S(=O)(=O)Nc3ccccc3C(=O)O)c2)c1 | inactive | – |
| Cc1ccc2nc(NC(=O)c3ccco3)sc2c1 | – | inconclusive: -78% [activator] |
| COc1ccc(-c2csc(/N=C/N(C)C)n2)cc1OC | inconclusive: 14.1 µM [activator, partial curve, poor fit] | – |
| Cc1cc(SCc2ccccc2F)nc(=O)[nH]1 | inactive | – |
| COc1ccccc1-c1nnc(-c2ccc(F)cc2)o1 | inconclusive: 1.41 µM [activator, full curve, poor fit] | – |
| COc1ccc(C2OC3=C(Nc4cc(C)c(C)cc4N3)C2=O)cc1 (stereo not drawn) | active: 2.82 µM | – |
| COc1ccc(CCNC(=O)c2ccc(CS(=O)(=O)c3ccc(Cl)cc3)o2)cc1OC | inactive | – |

| Compound | Potency | activation |
| --- | --- | --- |
| Cc1ccc(NC(=O)c2ccc(F)cc2F)cc1 | inconclusive: 3.16 µM [activator, partial curve, poor fit] | – |
| Cc1sc(C(=O)Nc2ccc3ccccc3c2)cc1CC(=O)O | inconclusive: 12.6 µM [activator, partial curve, poor fit] | – |
| Cn1c2ccccc2c(=O)c2cc(C#Cc3ccccn3)ccc21 | inconclusive: 2.24 µM [activator, full curve, poor fit] | – |
| O=C(N/N=C/c1cc(Cl)c(O)c(Cl)c1)c1cc2c(ccc3ccccc32)o1 | inconclusive: 35.5 µM [activator, single point] | – |
| O=C(c1ccc(S(=O)(=O)Cc2cc(F)ccc2F)c([N+](=O)[O-])c1)N1CCOCC1 | inactive | – |
| COc1ccc(NC(=O)c2oc3ccccc3c2NC(=O)C2CC2)cc1 | inactive | – |
| Cc1ccc(NC(=O)c2csc3c2CCCC3)cc1 | active: 12.6 µM | – |
| C=CCn1c(SCc2csc(C)n2)nc2sc3c(c2c1=O)CCCC3 | inactive | – |
| N/C(=N\OC(=O)c1ccc2ccccc2c1)c1ccncc1 | inconclusive: 1.26 µM [activator, full curve, poor fit] | – |
| CCOC(=O)/C(C#N)=C\c1ccc(CC)s1 | inactive | – |
| COc1cc(/C=N/N2CCOCC2)ccc1OCc1ccccc1 | active: 7.94 µM | – |
| O=C(COc1ccc2c3c(c(=O)oc2c1)CCCC3)N1CCN(c2ccc(F)cc2)CC1 | inactive | – |
| c1ccc(-c2cc(N3CCCCC3)ncn2)cc1 | inconclusive: 10 µM [activator, partial curve, poor fit] | – |
| Cn1cccc1C(=O)OCc1ccc(C(C)(C)C)cc1 | inconclusive: 11.2 µM [activator, partial curve, poor fit] | – |
| Cc1ccc(S(=O)(=O)/N=C2\C=C(NS(=O)(=O)c3ccccc3)C(=O)c3ccccc32)cc1 | inactive | – |
| COc1cc(/C=N/n2cnnc2)ccc1OCc1ccccc1 | inactive | – |
| Clc1ccccc1-c1nnc(-c2cccnc2)o1 | inconclusive: 4.47 µM [activator, partial curve, poor fit] | – |
| CNc1nc(-c2ccc3c(c2)CCN3C(=O)c2cccc(F)c2)cs1 | inconclusive: 1 µM [activator, full curve, poor fit] | – |
| COc1ccc(C(=O)NNC(=O)c2snnc2C)cc1 | inactive | – |
| CSC[C@H]1CN(c2ccccc2)C(=O)[C@@H]1CC(=O)Nc1ccc(Br)cc1 | inactive | – |
| O=C(Nc1ccc(C(=O)Oc2ccccc2)c(O)c1)c1ccco1 | inconclusive: 25.1 µM [activator, single point] | – |
| Cc1ccc2nc(-c3ccc(NC(=S)NC(=O)C(C)C)cc3)sc2c1 | inactive | – |
| O=c1cc(-c2ccc(O)c(O)c2)oc2cc(O[C@@H]3O[C@H](CO)[C@@H](O)[C@H](O)[C@H]3O)cc(O)c12 | inconclusive: 7.08 µM [activator, partial curve, poor fit] | – |
| Nc1nnc(-c2ccc(Cl)cc2Cl)s1 | active: 10 µM | – |
| COc1ccc(/C=C2/SC(=S)N(CC(=O)O)C2=O)cc1OCc1ccc(Cl)cc1 | inconclusive: 10 µM [activator, partial curve, poor fit] | – |
| COc1ccc(Cl)cc1NC(=O)CN1CCc2ccccc21 | inactive | – |
